# Experimental data as given in PubChem BioAssay AID588453 (National Center for Advancing Translational Sciences (NCATS), 2011).
# Screen size: about 390,000 compounds; about 4,000 (1%) were called active. The inconclusive results got no clear call from the source; some entries with a clear call stand among them for comparison. Calls come from the whole dose curve; as a rule, active = well fitted inhibition curve with a large enough effect; inconclusive = small, poorly fitted or top-dose-only effect; inactive = no such curve, though single readings can be large or run the other way. Potencies beside an inconclusive call are fits to weak or partial responses and may not hold up.
# Target: Thioredoxin reductase 1, cytoplasmic (Rattus norvegicus) (UniProt O89049)
# Test: qHTS Assay for Inhibitors of Mammalian Selenoprotein Thioredoxin Reductase 1 (TrxR1): qHTS; note: nearly all actives have a fitted effect of over 65% in size
# Settings: recombinant rTrxR1, NADPH fluorescence consumption, selenite substrate; series mostly up to 114 µM; activity change, negative = inhibition: at the top concentration
# Outline: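 Rat TrxR1 (90 nM in the dispensed reagent) was pre-reduced with 400 uM NADPH for 5 min at room temperature, then incubated with compound for 15 min. After 400 uM selenite was added, NADPH fluorescence (Ex 340/Em 450 nm) was followed for 8 min.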
# % is set by controls: 0 for no effect and ±100 for the full control effect; potency is the fitted concentration of half-maximal effect; tags give direction and shape of the fitted curve.
# Chain of UniProt O89049 (O89049 whole entry, looked up): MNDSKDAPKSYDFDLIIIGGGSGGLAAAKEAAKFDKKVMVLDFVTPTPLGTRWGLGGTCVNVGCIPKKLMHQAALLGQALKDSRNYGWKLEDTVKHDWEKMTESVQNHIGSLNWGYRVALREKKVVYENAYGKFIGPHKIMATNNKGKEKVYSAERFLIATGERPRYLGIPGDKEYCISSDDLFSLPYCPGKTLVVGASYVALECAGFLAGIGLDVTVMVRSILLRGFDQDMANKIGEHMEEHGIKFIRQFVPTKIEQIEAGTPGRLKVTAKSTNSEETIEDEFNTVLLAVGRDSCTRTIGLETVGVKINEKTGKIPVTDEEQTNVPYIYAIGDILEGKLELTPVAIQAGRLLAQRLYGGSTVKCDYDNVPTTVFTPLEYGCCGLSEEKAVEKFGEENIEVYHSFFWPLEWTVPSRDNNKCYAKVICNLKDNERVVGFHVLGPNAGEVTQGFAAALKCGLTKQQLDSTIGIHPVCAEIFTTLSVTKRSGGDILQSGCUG
Compound,Potency,"activity change, negative = inhibition"
CC1(C)CC(=O)C(=Cc2cn(CCC#N)nc2-c2ccc(Cl)cc2)C(=O)C1,"inconclusive: 39.8 µM [inhibitor, partial curve]",
O=C(N/N=C/c1ccco1)c1ccccc1OCc1ccccc1Cl,"inconclusive: 79.4 µM [inhibitor, single point]",
Fc1ccc(C2=CC(c3ccco3)n3ncnc3N2)cc1 (centres undefined),"inconclusive: 79.4 µM [inhibitor, partial curve, poor fit]",
CCOc1ccc2[nH]c(=O)c(CN(Cc3ccco3)Cc3nnnn3Cc3ccccc3)cc2c1,active: 14.1 µM,
COc1ccc(-c2nc(CN3CCN(c4ncnc5ccccc45)CC3)c(C)o2)c(OC)c1,"inconclusive: 39.8 µM [inhibitor, partial curve, poor fit]",
CC(=O)c1cccc(NC(=O)CC2SC(N3CCCCC3)=NC2=O)c1 (centres undefined),,inactive: 17.4% [at 57.1 µM]
Nc1ncnc2c1[nH]c(=S)n2C1OC(CO)C(O)C1O (centres undefined),"inconclusive: 22.4 µM [inhibitor, partial curve, poor fit]",
O=C1c2ccccc2C(Nc2ccc(F)c(Cl)c2)N1Cc1ccco1 (centres undefined),"inconclusive: 14.1 µM [inhibitor, partial curve, poor fit]",
Cc1cc(CNC[C@H]2O[C@@H](n3cnc(C(N)=O)n3)[C@H](O)[C@@H]2O)c(C)n1-c1cccnc1,"inconclusive: 25.1 µM [inhibitor, partial curve, poor fit]",
O=S(=O)(c1cc(C(F)(F)F)ccc1Cl)N1CCCCCC1,,inactive: 6.08%
COc1ccccc1Cn1c(=S)[nH]c2cc(C(=O)NCC3CCCO3)ccc2c1=O (centres undefined),,inactive: 20.4% [at 57.1 µM]
C=Cc1ccc(Cn2c(C(=O)O)c(CNC3CCCCC3)c3ccc(OC)cc32)cc1,"inconclusive: 79.4 µM [inhibitor, partial curve, poor fit]",
O=C(/C=C/c1ccco1)NC(=S)Nc1ccccc1,active: 44.7 µM,
O=C(COc1ccccc1F)N1N=C(c2cccs2)CC1c1ccco1 (centres undefined),"inconclusive: 39.8 µM [inhibitor, partial curve]",
O=C(Cn1cnnn1)OCC(=O)c1ccc(Cl)s1,"inconclusive: 56.2 µM [inhibitor, partial curve, poor fit]",
Nc1ccc(/C=C/c2ccnc3ccccc23)c(N)c1,"inconclusive: 89.1 µM [inhibitor, partial curve, poor fit]",
CCN(CC)S(=O)(=O)c1ccc(C)c(NC(=O)Cc2ccc(S(=O)(=O)N3CCOCC3)s2)c1,,inactive: -2.83%
CC(C)(C)c1ccc(C(=O)CS(=O)(=O)c2ccccc2)cc1,"inconclusive: 50.1 µM [inhibitor, partial curve]",
CCS(=O)(=O)c1ncc(Cl)c(C(=O)NCc2ccc(OC)cc2)n1,"inconclusive: 39.8 µM [inhibitor, single point]",
Cc1ccc(O)c(C=Nc2cc(C)ccc2O)c1,"inconclusive: 17.8 µM [inhibitor, full curve]",
O=c1cc(CSc2nc3ccccc3[nH]2)c2ccccc2[nH]1,"inconclusive: 7.08 µM [inhibitor, single point]",
CN(CCc1ccccn1)C(=O)CC1C(=O)NCCN1Cc1cccc(F)c1 (centres undefined),"inconclusive: 44.7 µM [inhibitor, partial curve]",
O=C(Oc1c(Br)cc([N+](=O)[O-])cc1Br)c1cccnc1,,inactive: -15.5% [at 57.1 µM]

Compound,Potency,"activity change, negative = inhibition"
CCn1c(C)nc([N+](=O)[O-])c1Sc1ccc(F)cc1,"inconclusive: 56.2 µM [inhibitor, single point]",
COc1cccc(NC(=O)C(OC(=O)c2ccc([N+](=O)[O-])o2)c2ccccc2)c1 (centres undefined),"inconclusive: 8.91 µM [inhibitor, partial curve, poor fit]",
CCC1CC=CC2C1C(=O)N(Cc1ccccc1)C2c1ccc(C(F)(F)F)cc1 (centres undefined),,inactive: 10.8% [at 57.1 µM]
Cc1oc2c(C)c3oc(=O)c(CC(=O)N4CCCCC4)c(C)c3cc2c1C,,inactive: 5.77%
COc1ccc(/C=N/n2c(-c3n[nH]c4c3CCC4)n[nH]c2=S)c(OC)c1OC,"inconclusive: 28.2 µM [inhibitor, partial curve]",
CC1=CC(C)(C)N2C(=O)C3(NCCc4c3[nH]c3ccccc43)c3cc(C)cc1c32 (centres undefined),,inactive: 10.7%
O=C(Nc1ccccc1)Nc1ccc2nnsc2c1,,inactive: 14.7% [at 57.1 µM]
CCOC(=O)c1sc2nc(CC(=O)OC)nc(NCCN(CC)CC)c2c1C,"inconclusive: 89.1 µM [inhibitor, single point]",
O=C(CSc1nc(-c2ccccc2)cc(=O)[nH]1)N1CCc2ccccc21,"inconclusive: 35.5 µM [inhibitor, partial curve, poor fit]",
N#Cc1cccc(NC(=S)Nc2ccccc2)c1,active: 44.7 µM,
CCN1C(=O)/C(=C2\SC(=S)N(CCCOC)C2=O)c2ccccc21,,inactive: 7.09% [at 57.1 µM]
COc1ccc(Cl)cc1NC(=O)Cn1nnc(C(=O)NCCc2ccc(OC)c(OC)c2)c1N,"inconclusive: 39.8 µM [inhibitor, partial curve, poor fit]",
O=C(O)CCc1ccc(-c2cccs2)n1CCC(=O)O,"inconclusive: 70.8 µM [inhibitor, single point]",
Cc1csc(CNC(=O)CC2C(=O)NCCN2Cc2ccc(F)cc2Cl)n1 (centres undefined),"inconclusive: 44.7 µM [inhibitor, partial curve, poor fit]",
Cc1ccc(-n2c(SCC(=O)NCc3ccco3)nc3c([nH]c4ccccc43)c2=O)cc1,"inconclusive: 89.1 µM [inhibitor, single point]",
Cc1cc(SCC(=O)NC(=O)NCc2ccco2)nc2c(C)cccc12,"inconclusive: 17.8 µM [inhibitor, partial curve]",
Fc1ccc(-n2nnc(-c3ccccc3)n2)cc1,"inconclusive: 0.891 µM [inhibitor, full curve]",
O=C(Cc1ccccc1)NC(=S)Nc1ccc(N2CCCCC2)cc1,"inconclusive: 15.8 µM [inhibitor, full curve]",
CC[C@]12c3[nH]c4cc(-c5ccco5)ccc4c3CCN1C(=O)[C@@H](CC(=O)NCCC1=CCCCC1)C[C@@H]2C(=O)N1CCN(C(=O)c2ccco2)CC1,"inconclusive: 44.7 µM [inhibitor, partial curve, poor fit]",
COc1cccc2sc(N(C)c3ccccc3)nc12,,inactive: -6.38%
O=C(c1ccc2c(c1)N(Cc1ccccc1)C(=O)c1ccccc1S2(=O)=O)N1CCN(Cc2ccccc2)CC1,,inactive: 23.5%
CN(C)c1ccc(C(=S)N2CCNCC2)cc1,"inconclusive: 89.1 µM [inhibitor, single point]",
c1cc(N2CCCC2)ccc1C(c1nnnn1C1CCCCC1)N1CCOCC1 (centres undefined),active: 7.08 µM,

Compound,Potency,"activity change, negative = inhibition"
CCc1ccc(C2CC(=O)N3CN(c4ccccc4)CSC3=C2C#N)cc1 (centres undefined),"inconclusive: 12.6 µM [inhibitor, partial curve]",
Cn1nnc(-c2ccc(OCc3ccccc3F)cc2)n1,,inactive: 10.6%
N[C@@H](Cc1cc(I)c(Oc2cc(I)c(O)c(I)c2)c(I)c1)C(=O)O,"inconclusive: 89.1 µM [inhibitor, single point]",
Cc1cc(/C=N/NC(=O)C(O)(c2ccccc2)c2ccccc2)c(C)n1-c1cccc(C(=O)O)c1,"inconclusive: 0.141 µM [inhibitor, full curve, poor fit]",
Cc1ccccc1OCCn1c(CCNC(=O)C2CCCCC2)nc2ccccc21,inactive,
CCOc1ccc(N2C(=O)CC(Sc3ccccc3C(=O)O)C2=O)c([N+](=O)[O-])c1 (centres undefined),active: 28.2 µM,
CCCC(=O)NC(=S)Nc1ccc(S(=O)(=O)Nc2ccc(OCC)cc2)cc1,"inconclusive: 35.5 µM [inhibitor, partial curve]",
O=C(Nc1ccc2c(c1)OCO2)Nc1ccc(Br)cn1,,inactive: 14%
CCCCCCCCCCCCCCCC[n+]1ccc(C)cc1,,inactive: -28.8%
Cn1c(=O)c2nc(Cl)c(-c3ccccc3)nc2n(C)c1=O,"inconclusive: 79.4 µM [inhibitor, single point]",
CCN1CCN(C(c2ccccc2Cl)c2c(O)cc(C)n(CCOC)c2=O)CC1 (centres undefined),active: 10 µM,
Cn1c(O)c(N=NC(=S)Nc2ccccc2F)c2cc(S(=O)(=O)N3CCOCC3)ccc21,,inactive: -26.1%
CSC1=N/C(=C\c2ccc(Br)o2)C(=O)S1,"inconclusive: 28.2 µM [inhibitor, partial curve, poor fit]",
CCc1cc(C(c2ccccc2OC)N2CCOCC2)c(NC(=O)c2ccccc2)s1 (centres undefined),"inconclusive: 15.8 µM [inhibitor, full curve, poor fit]",
CCCC(=O)NC(=S)Nc1ccc(N2CCN(C(=O)c3cccs3)CC2)cc1,"inconclusive: 56.2 µM [inhibitor, partial curve]",
O=C(Nc1nc2c(s1)CCCC2)c1cccc(S(=O)(=O)N2CCCc3ccccc32)c1,,inactive: 8.2%
CCOC(=O)Cc1c(C)nc2c(-c3ccccc3)c[nH]n2c1=O,,inactive: 9.57% [at 57.1 µM]
CCCCNCCOc1ccccc1-c1ccccc1,,inactive: -16%
NC(=O)COC(=O)c1cc(-c2ccco2)nc2ccccc12,active: 79.4 µM,
CC(C)(Oc1ccc(Br)cc1)C(=O)Nc1cc(-c2nc3ccccc3[nH]2)ccc1Cl,,inactive: 19%
Cc1cc(N2C(=O)C(O)=C(C(=O)c3cc4ccccc4o3)C2c2cccc(Cl)c2)no1 (centres undefined),"inconclusive: 89.1 µM [inhibitor, partial curve, poor fit]",
O=C(COc1ccccc1O)N1CCN(C(=O)c2ccco2)CC1,"inconclusive: 70.8 µM [inhibitor, partial curve, poor fit]",
Cc1ccc2cc(C3CC(c4ccco4)=NN3S(=O)(=O)c3ccccc3)c(Cl)nc2c1 (centres undefined),"inconclusive: 79.4 µM [inhibitor, single point]",
